Reference: paper PMC4336329 (PLoS ONE, 2015)
The whole screen tested about 310,000 compounds, of which about 14,000 (4.5%) showed an effect of 50% or more. Effects have a minus sign here. The list shows a part of the results.

Molecular target: human ether-à-go-go-related gene (hERG) potassium channel (human, UniProt Q12809)
Test: primary screen, population patch clamp on CHO cells stably expressing hERG
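Also: peak tail current of the secondary pulse compared with the same well before compound.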

human ether-à-go-go-related gene (hERG) potassium channel, sequence (Q12809 whole entry, looked up): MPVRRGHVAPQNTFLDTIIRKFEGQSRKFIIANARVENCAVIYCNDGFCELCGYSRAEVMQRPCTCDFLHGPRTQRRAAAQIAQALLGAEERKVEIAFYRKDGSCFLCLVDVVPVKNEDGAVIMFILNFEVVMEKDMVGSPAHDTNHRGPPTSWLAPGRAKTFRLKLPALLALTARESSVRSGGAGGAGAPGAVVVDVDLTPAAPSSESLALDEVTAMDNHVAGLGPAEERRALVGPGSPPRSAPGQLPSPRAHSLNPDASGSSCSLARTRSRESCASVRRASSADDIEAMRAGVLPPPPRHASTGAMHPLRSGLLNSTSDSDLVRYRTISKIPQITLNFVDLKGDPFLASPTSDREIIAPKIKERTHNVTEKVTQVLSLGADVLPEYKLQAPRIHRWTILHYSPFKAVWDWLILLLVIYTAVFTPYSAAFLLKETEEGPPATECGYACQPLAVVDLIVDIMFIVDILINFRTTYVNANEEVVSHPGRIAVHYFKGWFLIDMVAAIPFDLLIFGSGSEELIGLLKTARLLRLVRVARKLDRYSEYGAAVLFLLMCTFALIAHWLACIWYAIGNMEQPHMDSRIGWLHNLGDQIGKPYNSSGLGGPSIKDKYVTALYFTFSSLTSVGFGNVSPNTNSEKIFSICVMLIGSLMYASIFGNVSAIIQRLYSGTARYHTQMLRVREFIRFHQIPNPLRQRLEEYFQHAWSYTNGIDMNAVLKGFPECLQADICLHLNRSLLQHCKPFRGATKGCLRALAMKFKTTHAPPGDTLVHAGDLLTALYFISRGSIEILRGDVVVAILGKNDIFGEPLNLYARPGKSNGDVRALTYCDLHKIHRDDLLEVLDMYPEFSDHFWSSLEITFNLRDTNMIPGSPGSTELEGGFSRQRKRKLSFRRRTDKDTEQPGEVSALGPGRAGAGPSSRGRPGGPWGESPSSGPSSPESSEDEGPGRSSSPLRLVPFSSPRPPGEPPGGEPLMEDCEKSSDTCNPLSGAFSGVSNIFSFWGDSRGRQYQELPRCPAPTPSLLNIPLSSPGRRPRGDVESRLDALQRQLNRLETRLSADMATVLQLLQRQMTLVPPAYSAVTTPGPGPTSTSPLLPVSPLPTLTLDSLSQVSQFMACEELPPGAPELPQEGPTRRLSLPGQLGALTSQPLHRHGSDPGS

Point of comparison: `O=C(CC1C(=O)NCCN1Cc1c(F)cccc1Cl)NCCCN1CCCC1=O` (stereo not shown), “hERG current change (%, negative = inhibition) at 10uM” value 14.2%. Against it:
- CNC(=O)CN(C)S(=O)(=O)c1ccc(F)cc1 — lower, -7.07%
- COc1ccc(NC(=O)c2sc3nc(Cc4ccccc4)cc(C(F)(F)F)c3c2N)cc1OC — lower, -2.56%
- COc1ccc2nc(SCc3cccc(C)c3)nc(C)c2c1 — lower, -10.9%
- CC(C(=O)Nc1ccccn1)N1C(=O)C2C3C=CC(C3)C2C1=O (stereo not shown) — lower, -10.4%
- O=c1c2ccccc2nc(/C=C/c2ccc(Br)cc2)n1CCO — lower, 2.81%
- CCOC(=O)CC1(NC(=O)c2cc(COc3ccc(F)c(F)c3)on2)CCCCC1 — lower, -0.733%
- CN(c1ccccc1)c1ccc(/C=c2\s/c(=C(/C#N)C(=O)C(C)(C)C)n(Cc3ccco3)c2=O)cc1 — lower, 8.59%
- O=[N+]([O-])c1ccccc1CNCCCCCO — lower, -6.35%
- CC12CCC(c3c(CO)nn(-c4ccccc4)c31)C2(C)C (stereo not shown) — lower, -7.15%
- O=C(COc1ccc(C(=S)N2CCCC2)cc1)Nc1ccc(F)cc1 — lower, -15.1%
- COc1ccc(COC(=O)c2ccc(Cl)c(S(=O)(=O)N3CC(C)OC(C)C3)c2)cc1 (stereo not shown) — lower, 0.481%
- CCCNS(=O)(=O)c1ccc(OC)c(Cl)c1Cl — lower, -9.11%
- O=C(c1cc(Cl)nc2ccccc12)N(Cc1nnc(-c2ccc(Cl)cc2)o1)C1CC1 — lower, -49%
- O=C(/C=C/c1ccc2c(c1)OCO2)NCc1cn2cc(Cl)ccc2n1 — lower, 1.03%
- O=C(CSc1nnc(CNC(=O)c2c(F)cccc2Cl)o1)NCCc1ccccc1 — lower, -1.59%
- CNC(=S)Nc1ccc(Br)cc1 — lower, -7.63%
- O=C(NCc1ccccc1Cl)C1CCCN1C(=O)NCc1ccccc1 (stereo not shown) — higher, 14.4%
- COn1c(-n2nc(C)cc2C)nc2ccccc2c1=O — higher, 16%
- CC(C)(C)N(Cc1ccccc1)C(=O)COC(=O)CSc1ccc([N+](=O)[O-])cc1 — higher, 14.8%
- COc1cc(S(N)(=O)=O)c(OC)cc1N — higher, 28.7%
- CCCn1c(NCCO)nc2ccccc21 — lower, 2.74%
- Oc1ccc(NC(=S)Nc2ccc(O)cc2)cc1 — lower, 9.21%
- Cc1ccc2c(Cl)c(C(=O)NCCCn3ccnc3)sc2c1 — lower, -25.4%
- Cc1cccc(CSc2nc3c(c(=O)n2C)SCC3)c1 — lower, -11.5%
- O=C(CCNc1cccc(F)c1)c1cc2ccccc2o1 — lower, 9.42%
- COc1cccc(OC)c1C(=O)Nc1ccc(N2CCN(C(=O)c3ccco3)CC2)cc1 — lower, 9.97%
- Cc1ccc(OCc2n[nH]c(=S)n2-c2ccccc2)cc1C — higher, 16.2%
- COc1ccc(OC)c(/C=C2\Oc3cc(OCC(=O)N4CCC(C(=O)O)CC4)ccc3C2=O)c1 — lower, -0.513%
- COC(=O)c1ccc(C2/C(=C(/O)c3ccc4c(c3)CC(C)O4)C(=O)C(=O)N2Cc2ccncc2)cc1 (stereo not shown) — the same, 14.2%
- Cc1ccccc1CN1CCN(CC(=O)NCCCN2CCN(c3ccc(F)cc3)CC2)C1=O — lower, -71.2%
- COc1ccc(OCCN(C)Cc2ccccc2)cc1 — lower, -41.9%
- COc1ccccc1C(=O)Nc1ccc(S(=O)(=O)N2CCOCC2)cc1 — lower, -12.6%
- Cc1nnc(SCC(=O)Nc2ccccc2F)n1Cc1ccco1 — lower, -0.661%
- Cc1ccc[n+](CC(=O)Nc2ccc([N+](=O)[O-])cc2Cl)c1.[Cl-] — lower, -1.45%
- O=C(N/N=C/c1ccc([N+](=O)[O-])o1)C(=O)Nc1ccc(C(=O)O)cc1 — higher, 23%
- CC1(C)N=C(c2ccccn2)C(C)(C)N1O — higher, 24.3%
- CONc1nc2nonc2nc1NOC — higher, 14.8%
- Cc1ccc(C2=NN(C(=O)c3ccco3)C(O)(C(F)(F)F)C2)cc1 (stereo not shown) — lower, -34%
- O=C(Nc1ccccc1C(=O)N1CCOCC1)c1ccc(Br)cc1 — lower, -23.8%
- O=C1C2CCCN2C(=O)N1CCCCN1CCN(c2cccc(Cl)c2)CC1 (stereo not shown) — lower, -65.6%
- O=C(Nc1ncn[nH]1)c1ccc(Cl)cc1Cl — lower, -4.04%
- O=C(Nc1cccc(F)c1)C1CCCN1C(=O)OCc1ccccc1 (stereo not shown) — lower, 1.4%
- CCn1cnc2cc(NCc3nc4ccccc4n3Cc3ccccc3)ccc21 — lower, -65.6%
- Cl.O=C(O)C1CCCN(CCC=C(c2ccccc2)c2ccccc2)C1 (stereo not shown) — lower, -46%
- CC(C)CCN1C(=O)c2ccc(C(=O)OCn3nnc4ccccc4c3=O)cc2C1=O — lower, 12.7%
- CC(C)P(=O)(c1cccc(C(=O)O)c1)C(C)C — lower, 13.3%
- CC(=O)Nc1ccc(S(=O)(=O)Oc2ccc(C=O)cc2)cc1 — lower, -0.403%
- CCN(CC)CCNC(=O)c1cc(S(=O)(=O)N2CCc3ccccc32)cn1C — lower, -66.1%
- O=C(Cn1cnc2scc(-c3ccc(Br)cc3)c2c1=O)N1CCOCC1 — lower, -9.95%
- O=C(CSc1nnc(-c2ccc(S(=O)(=O)N3CCCC3)cc2)o1)NCC1CCCO1 (stereo not shown) — lower, 3.55%
- COc1cc(C(=O)Nc2nnc(C)s2)c([N+](=O)[O-])cc1OC — lower, -16.8%
- CCc1nnc(NC(=O)C(NS(=O)(=O)c2ccc3c(c2)OCCO3)C(C)C)s1 (stereo not shown) — lower, -4.87%
- COc1cccc(CC(C(=O)Nc2cc(C)ccc2C)c2nn[nH]n2)c1OC (stereo not shown) — lower, -10.4%
- Cc1cccc(OCC(=O)NS(=O)(=O)c2ccc(Br)cc2)c1 — lower, 6.23%
- Cc1ccccc1-n1c(C)n[nH]c1=S — higher, 19.3%
- Cc1csc(SCC(=O)Nc2nc3ccccc3s2)n1 — lower, 3.27%
- CCCCNC(=O)O[C@H]1C[C@@H]2CCN3C(=O)CCC[C@H]([C@H]1CC)[C@H]23 — lower, -8.19%
